Results from PubChem BioAssay AID493208 (National Center for Advancing Translational Sciences (NCATS), 2011).
Out of some 44,000 compounds screened, about 340 (0.77%) were called active. About 5% were inconclusive and are not listed. Calls follow the shape of the dose curve; as a rule, active = well fitted inhibition curve with a large enough effect; inconclusive = small, poorly fitted or top-dose-only effect; inactive = flat fitted curve, though single readings scatter. Some of the results follow.

experiment: Acumen qHTS Assay for Inhibitors of the mTORC1 Signaling Pathway in MEF (Tsc2-/-, p53-/-) Cells: Sytravon; details: phospho-rpS6 immunofluorescence/PI, 24 h; series mostly up to 38.3 µM; activity change, negative = inhibition: at the top concentration; also: nearly all actives have a fitted effect of over 50% in size;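 as to activity change, negative = inhibition: plate controls were DMSO for no effect and rapamycin for full effect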
In short: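 Readout is phospho-S6 Alexa 488 signal normalized to PI per well, reported as % active cells with thresholds set from rapamycin (7.5 nM) and DMSO controls. Cells: Tsc2-/-, p53-/- MEFs, 24 hrs compound at 37 C; PI cell number serves as viability.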
Potency is read from the fitted curve at half-maximal effect.

Activity change, negative = inhibition, inactive:
Cc1cccc(NC(=O)N2CCN3CCCCC3C2)c1C (centres undefined) -13.6%
COc1cccc(NC(=O)Cn2c(-c3nonc3N)nc3ccccc32)c1 4.37%
COc1ccccc1N1CCN(c2csc3ccccc3c2=O)CC1 -7.26%
COc1ccccc1CNC(=O)CCCCn1c(=O)c2ccccc2n(CC(=O)Nc2cccc(Cl)c2)c1=O -11.3%
COC(=O)c1cc2oc3ccccc3c2n1Cc1ccccc1Cl -2.37%
Cc1ccc(-n2ncc3c(N4CCN(c5ccc(F)cc5)CC4)ncnc32)cc1 9.44%
COc1ccc2oc(-c3ccc(NC(=O)c4ccc(Cl)cc4Cl)cc3)nc2c1 -9.25%
COc1ccc(CNC(=O)C(=O)Nc2cccc(C)c2C)cc1 -17.8%
O=c1c(-c2cc(-c3ccccc3)nc3c2COc2ccccc2-3)coc2ccc(Cl)cc12 -4.69%
CCc1ccc(NC(=O)C2CCCN(c3nnc(C)c4c(C)n(-c5ccccc5)nc34)C2)cc1 (centres undefined) -5.6%
O=C(Nc1cc(Cl)ccc1Cl)c1cc(S(=O)(=O)N2CCc3ccccc3C2)ccc1F 8.41%
COc1ccc(OC)c(C(=O)CN2C(=O)N(c3ccc(C)cc3)S(=O)(=O)c3ccccc32)c1 -0.375%
Cc1ccc(CNS(=O)(=O)c2ccc3c(c2)CC(C)N3C(=O)C2CCC2)cc1 (centres undefined) 0%
O=C(Cn1c(-c2cccs2)cc2ccccc21)N1CCN(c2ccc(F)cc2)CC1 0.184%
COC(=O)c1c(-c2cccs2)csc1NC(=O)c1ccc(C)cc1 0.0397%
COc1ccccc1NC(=O)Cn1c(=O)n(CC2CCC(C(=O)NCCc3ccccc3)CC2)c(=O)c2ccccc21 (centres undefined) -16.8%
CCOC(=O)CSc1nc2sc3c(c2c(=O)n1-c1ccc(OC)cc1)CC(C(C)C)OC3 (centres undefined) -4.11%
Cc1cc(NC(=O)c2cc(-c3ccc(Cl)c(Cl)c3)on2)n(-c2ccccc2)n1 6.84%
CCOc1ccc(CNC(=O)C2CCN(C(=O)N3CC(CC)Oc4ccc(C)cc43)CC2)cc1OC (centres undefined) -19.7%
Cc1cc(Br)ccc1NC(=O)c1c(C)oc2ncnc(N3CCCCC3)c12 -7.98%
Cc1ccccc1N1CC(c2nc3ccccc3n2Cc2ccc(Br)cc2)CC1=O (centres undefined) 4.53%
COCCNC(=O)CN1C(=O)COc2ccc(S(=O)(=O)N3CCCC3)cc21 -3.31%
CCN(CC)CCOC(=O)c1ccc(NC(=O)c2cc3cc(OC)ccc3oc2=O)cc1 0.943%
Cc1nnc(SCC(=O)Nc2ccc(N(C)C)cc2)[nH]c1=O -1.46%
CCc1ccc(NC(=O)Cn2c(=O)n(CCCC(=O)NCCc3ccc(OC)c(OC)c3)c(=O)c3ccccc32)cc1 0.21%
Cc1ccccc1NC(=O)CCn1nc(-c2ccccc2)c2ccccc2c1=O -12.5%
CCOc1ccc(Sc2cc(C(=O)NCc3ccccc3Cl)c3ccccc3n2)cc1 -0.552%
Cc1c(Cl)cccc1-n1nc(C)c2c(C)cc(=O)n(CC(=O)N3CCCc4ccccc43)c21 2.55%
Cc1cc2oc3c(c(=O)c2cc1C)C(c1ccc(C(C)C)cc1)N(c1nc(C)c(C)s1)C3=O (centres undefined) 4.22%
CCCNC(=O)C1CCN(c2nc3ccc(C)cc3[nH]2)CC1 -0.731%
CCCOc1ccc(CNC(=O)C2CCN(C(=O)c3sccc3-n3cccc3)CC2)cc1 -13.3%
COc1ccc(-c2nc3ccccc3n3c(-c4ccc(OC)cc4)c4c(=O)n(C)c(=O)n(C)c4c23)cc1 2.55%
Cc1ccc(CNC(=O)CCCN2C(=O)CCn3nc(-c4cccn4C)cc32)cc1 0.555%
CCOC(=O)c1ccc2c(c1)N(Cc1ccc(F)cc1Cl)C(=O)c1ccccc1S2 3.56%
Cc1cnc(=O)[nH]c1SCC(=O)Nc1cc(C(F)(F)F)ccc1Cl 2.65%
COc1cccc(NC(=O)N(Cc2cn(C)c3ccccc23)C2CCCCCC2)c1 -6.4%
Cc1cccc(C(=O)Nc2ccc(N3CCC(N4CCCCC4)CC3)c(C(=O)O)c2)c1 -4.91%
COc1cc(CNc2ccc3[nH]c(=O)[nH]c3c2)cc(Br)c1OCc1ccccc1F -9.08%
Cc1cccc(CN2CCN(CC(=O)Nc3c(C)cccc3C)S2(=O)=O)c1 -2.89%
Cc1ccc(C)n1-c1nnc(N2CCCC(C(=O)NCc3cccc(Br)c3)C2)s1 (centres undefined) -11.6%
NC1=NC(c2cc(F)cc(F)c2)n2c(nc3ccccc32)N1 (centres undefined) 0.839%
CC1=C(C(=O)NCc2ccc(Cl)cc2)C2(CCC(C)CC2)OC1=O (centres undefined) 1.13%
Cc1ccc(CNC(=O)CCc2c(C)nc3c4c(C)cc(C)nc4nn3c2C)cc1 -0.334%
Cc1ccc(Cl)cc1NC(=O)CC1Sc2ccccc2NC1=O (centres undefined) -13.6%
CCCCOc1cccc(C(=O)N(Cc2ccc(Br)o2)C2CCS(=O)(=O)C2)c1 (centres undefined) -0.942%
NC(=O)CSc1oc(-c2cccs2)nc1S(=O)(=O)c1ccc(Br)cc1 0%
Cc1cc(F)ccc1NC(=O)C1CCN(S(=O)(=O)c2ccc3c(c2)CCCC(=O)N3)CC1 -1.61%
O=C(Nc1cccc(Cl)c1)C1CCN(S(=O)(=O)Cc2ccccc2)CC1 -6.02%
COC(=O)c1ccc(NC(=O)N2CCN(c3nnc(C)c4c(C)n(-c5ccccc5)nc34)CC2)cc1 7.79%
O=C(Cn1c(=O)c(C(F)(F)F)nc2ccccc21)Nc1ccc(Br)cc1F 0.989%
COc1ccc(S(=O)(=O)N2CCN(c3ccccc3)CC2)cc1-c1noc(C)n1 -0.582%
Cc1ccccc1Cn1cc(CCC(=O)NCc2cccc(Br)c2)c2ccccc21 -19.6%
O=C(c1cnc2c(c1)COc1ccccc1-2)c1ccccc1O -15.1%
CC(C)(C)NC(=O)CSc1nc(-c2ccc(F)cc2)cc(C(F)(F)F)n1 -0.664%
COc1ccc(S(=O)(=O)NCC(c2ccco2)N2CCN(c3ccc(F)cc3)CC2)cc1 (centres undefined) -1.49%
CC(C)c1cnc2c(c1SCC(=O)c1ccccc1)c(=O)n(C)c(=O)n2C 0.295%
O=C(NCc1ccccc1)c1ccc2c(c1)N(Cc1ccccc1)C(=O)c1ccccc1S2(=O)=O 3.12%
CCOC(=O)Cn1c(=O)n(C2CCCCC2)c2nc(-c3ccc(OC)cc3)nc(C(N)=O)c21 1.3%
Cc1cc(C)cc(NC(c2nnc(-c3cccc(F)c3)o2)c2ccc(F)cc2Cl)c1 (centres undefined) -21%
COc1ccc(Cc2nc3ccc(C(=O)NCCc4ccc(OC)c(OC)c4)cc3o2)cc1 -8.97%
Cc1cc(C)c(S(=O)(=O)Nc2cc(Cl)c3oc4c(c3c2)C(=O)CCC4)cc1C 3.72%
Cn1c(=O)n(C)c2cc(CNCc3ccccc3)ccc21 -0.899%
Cc1ccc(CNS(=O)(=O)c2cc(Br)cc3c2N(C(=O)C2CC2)CC3)cc1 -2.58%
CCOc1ccc(C(=O)Nc2ccc(-c3nnc4n3CCCCC4)cc2)cc1OCC 5.12%
Cc1ccc(Cn2c(=O)n(Cc3ccccc3)c(=O)c3c(C)c(C)sc32)cc1 2.71%
Cc1ccc(CNC(=O)C(=O)NCC(c2ccco2)S(=O)(=O)c2ccc(C)cc2)cc1 (centres undefined) -1.89%
CC(C)(C)C(=O)Nc1nc2nc(-c3ccccc3)cc(=O)n2[nH]1 -0.787%
CCCCNC(=O)CN1C(=O)c2c(c3ccccc3n2C)C1c1ccc(OC)cc1 (centres undefined) -1.99%
Cc1ccc2oc(-c3cccc(NC(=O)c4ccc(N5CCC(C)CC5)c([N+](=O)[O-])c4)c3)nc2c1 4.32%
Cc1oc(-c2ccc(Cl)cc2)nc1CN1CCCC(C(=O)NCCc2ccccc2)C1 (centres undefined) 3.73%
CCc1cccc(C)c1NC(=O)c1cc(S(=O)(=O)N2CCC3(CC2)OCCO3)ccc1F -0.951%
COc1ccc(C2CC(=O)c3cc(-c4nc(-c5cccc([N+](=O)[O-])c5)cs4)c(=O)n(-c4ccc(F)cc4)c3C2)cc1 (centres undefined) -13.7%
CC(=O)c1ccc(NC(=O)CSc2c(C(C)C)cnc3c2c(=O)n(C)c(=O)n3C)cc1 -0.582%
Cc1ccc(S(=O)(=O)N2CCCc3cc(NS(=O)(=O)c4ccc(C)c(C)c4)ccc32)cc1 0%
O=C(Cn1c(=O)n(Cc2ccc(C(=O)NCc3ccc4c(c3)OCO4)cc2)c(=O)c2ccccc21)Nc1ccc(F)cc1F -11.2%
Cc1c(-c2nnc(SCC(=O)Nc3ccc(Br)cc3)o2)nnn1-c1ccc(F)cc1 -0.995%
COc1ccc(C2(N3CCN(c4cccc(C)c4C)CC3)C(=O)c3ccccc3C2=O)cc1 -14.9%
O=C(CS(=O)(=O)c1cccc2nsnc12)N1CCN(c2ccccc2)CC1 -7.3%
CCOc1ccc(CNCCSc2nnnn2C)cc1OC 2.85%
COc1ccc(-c2nc(C)c(CCNS(=O)(=O)c3ccc(F)cc3)s2)cc1OC -16.7%
COC(=O)c1ccccc1NC(=O)c1cn2c3c(ccc(Cl)c3c1=O)OC(C)C2 (centres undefined) 2.01%
CC(C)c1ccc(CN(Cc2ccco2)c2cnc(S(C)(=O)=O)nc2C(=O)Nc2ccccc2)cc1 -0.986%
CCCCNC(=O)C1CCN(c2nc3ccc(C)cc3[nH]2)CC1 4.55%
Cc1ccc(NC(=O)Cn2c(=O)oc3cc(S(=O)(=O)N4CCCC4)ccc32)cc1F -2.4%
Cc1nc2ccc(S(=O)(=O)CCC(=O)Nc3ccccc3C)cc2s1 -16.2%
CCOC(=O)c1ccc(NC(=O)C2CCCN(c3ncnc4onc(C)c34)C2)cc1 (centres undefined) -9.34%
COc1ccccc1N1CCN(CCCNC(=O)Cn2ncc3c([nH]c4ccccc43)c2=O)CC1 -8.85%
O=C(CC1NCCNC1=O)Nc1cccc(F)c1 (centres undefined) 1.84%
Cc1ccc2ncc3c(-c4ccccc4)nn(CC(=O)NC4CCCCC4)c3c2c1 -0.0135%
COc1ccc(NC(=O)CSC2=Nc3ccccc3C3=NC(CCC(=O)NCc4ccco4)C(=O)N23)cc1 (centres undefined) -1.14%
COc1ccccc1CNC(=O)C(=O)NCC(c1ccc2c(c1)OCO2)N1CCOCC1 (centres undefined) -18.9%
CCc1ccc(CN2CCc3nc(Nc4ccc5c(c4)OCCO5)ncc3C2)cc1 0%
CCc1ccc(CNc2nc3nc(C)c(Cc4ccccc4)c(=O)n3[nH]2)cc1 3.38%

Potency, active:
CCN1CCN(c2cc(C)c3cc(NC(=O)/C=C/c4ccc(C)cc4)ccc3n2)CC1 18.5 µM
